# In a collection of fitness landscapes (doi:10.1016/j.celrep.2020.107928):
# The full ranking holds about 81,000 sequences; the median of “one-hybrid fitness for binding parS DNA” is about -0.17, and the highest 2% start at about 0.51. Some of the results follow.
# B1: Caulobacter ParB omega fusion; a variant is named by its letters at X, in order, B8GW30 (parent)
# chain: MESVVVGEPGMSEGRRGLGRGLSALLGEVDAAPAQAPGEQLGGSREAPIEILQRNPDQPRRTFREEDLEDLSNSIREKGVLQPILVRPSPDTAGEYQIVAGERAWRAAQRAGLKTVPIMVRELDDLAVLEIGIIENVQRADLNVLEEALSYKVLMEKFERTQENIAQTIGKSXSHVANXMRLLXLPDEVQSYLVSGELTAXHARAIAAAADPVALAKQIIEGGLSVRETEALARKAPNLSAGKSKGGRPPRVKDTDTQALESDLSSVLGLDVSIDHRGSTGTLTITYATLEQLDDLCNRLTRGI
# Variants of: B1
# Test: one-hybrid fitness for binding parS DNA (scaled: cognate 1, non-cognate 0); higher = stronger binding
# Conditions: with parS DNA site
# Method in brief: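 Pre- and post-selection plasmids were Illumina-sequenced, three replicate libraries were pooled, and any variant with under 10 reads was removed. The libraries were Caulobacter ParB with four specificity codons randomised, selected in E. coli USO through a HIS3 reporter whose site is 19 bp from the promoter. Cells grew 48 hours at 37°C on M9 without histidine, with 0.1 mM IPTG and 5 mM 3-AT. Fitness is the log change in variant-to-wild-type read ratio, rescaled against cognate and non-cognate.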
row,Variant,one-hybrid fitness for binding parS DNA
1,ITNC,≤ 0.2
2,DNTK,≤ 0.2
3,AWWT,≤ 0.2
4,YLTL,≤ 0.2
5,ANQT,≤ 0.2
6,SRWY,≤ 0.2
7,NSMH,≤ 0.2
8,LSSG,≤ 0.2
9,PYIG,≤ 0.2
10,PNTT,≤ 0.2
11,RGPI,≤ 0.2
12,SFRR,≤ 0.2
13,KHTR,≤ 0.2
14,DSRG,≤ 0.2
15,KDTN,≤ 0.2
16,RHCH,≤ 0.2
17,QTGQ,≤ 0.2
18,ADSD,≤ 0.2
19,ILRC,≤ 0.2
20,CLQA,≤ 0.2
21,QIPC,≤ 0.2
22,PHFK,≤ 0.2
23,SDNV,≤ 0.2
24,HDAL,≤ 0.2

row,Variant,one-hybrid fitness for binding parS DNA
1,PMPV,≤ 0.2
2,QTFT,≤ 0.2
3,TRCD,≤ 0.2
4,HMAT,≤ 0.2
5,PFDL,≤ 0.2
6,SYHA,≤ 0.2
7,LPDY,≤ 0.2
8,LWSP,≤ 0.2
9,QQPP,≤ 0.2
10,PLDR,≤ 0.2
11,STHW,≤ 0.2
12,RCYG,1.04
13,EMPS,≤ 0.2
14,ELST,≤ 0.2
15,QHIK,≤ 0.2
16,SCFK,≤ 0.2
17,LSHE,≤ 0.2
18,AKCW,≤ 0.2
19,APTR,≤ 0.2
20,DYVR,≤ 0.2
21,QSMY,≤ 0.2
22,HYNG,≤ 0.2
23,ALTY,≤ 0.2
24,HQHS,≤ 0.2

row,Variant,one-hybrid fitness for binding parS DNA
1,MASY,≤ 0.2
2,LRQY,≤ 0.2
3,PRAA,≤ 0.2
4,LYFF,≤ 0.2
5,SYRI,≤ 0.2
6,YIDL,≤ 0.2
7,MSST,≤ 0.2
8,YLNF,≤ 0.2
9,HHQT,≤ 0.2
10,LDLA,≤ 0.2
11,ELHI,≤ 0.2
12,KCYR,≤ 0.2
13,MSKV,≤ 0.2
14,CHLT,≤ 0.2
15,GSAC,≤ 0.2
16,VGPN,≤ 0.2
17,QYWN,0.322
18,PPNN,≤ 0.2
19,NYQR,≤ 0.2
20,HSWR,≤ 0.2
21,AHPV,≤ 0.2
22,VHPD,≤ 0.2
23,TGNT,≤ 0.2
24,PEHT,≤ 0.2

row,Variant,one-hybrid fitness for binding parS DNA
1,APPP,≤ 0.2
2,WPPF,≤ 0.2
3,STQD,≤ 0.2
4,PCGW,≤ 0.2
5,QWRW,≤ 0.2
6,HTDM,≤ 0.2
7,VTTV,≤ 0.2
8,QTEM,≤ 0.2
9,RNEI,≤ 0.2
10,NTRT,≤ 0.2
11,LTGR,≤ 0.2
12,VFRP,≤ 0.2
13,ALDY,≤ 0.2
14,NDQR,≤ 0.2
15,DHKR,≤ 0.2
16,FYCG,≤ 0.2
17,FVTD,≤ 0.2
18,YEPC,≤ 0.2
19,QTWY,≤ 0.2
20,QRWV,≤ 0.2
21,GQTF,≤ 0.2
22,MMHG,≤ 0.2
23,YAVD,≤ 0.2
24,GSKA,≤ 0.2

row,Variant,one-hybrid fitness for binding parS DNA
1,TVLA,≤ 0.2
2,TAGM,≤ 0.2
3,PICW,≤ 0.2
4,HTEG,≤ 0.2
5,DLTE,≤ 0.2
6,IKRG,≤ 0.2
7,CSCI,≤ 0.2
8,FATY,≤ 0.2
9,HGSS,≤ 0.2
10,CMLR,≤ 0.2
11,TRAV,≤ 0.2
12,DLSG,≤ 0.2
13,YAEL,≤ 0.2
14,TATA,≤ 0.2
15,YHER,≤ 0.2
16,PCQR,≤ 0.2
17,KFRI,≤ 0.2
18,RIKI,≤ 0.2
19,QRWK,≤ 0.2
20,RTAR,≤ 0.2
21,DSWC,≤ 0.2
22,GAMG,≤ 0.2
23,TQSG,≤ 0.2
24,TNSY,≤ 0.2

row,Variant,one-hybrid fitness for binding parS DNA
1,QFVS,≤ 0.2
2,NVSN,≤ 0.2
3,TLWY,≤ 0.2
4,VEEC,≤ 0.2
5,DFCS,≤ 0.2
6,MTAS,≤ 0.2
7,QQAL,≤ 0.2
8,IPNA,≤ 0.2
9,LLWF,≤ 0.2
10,RQAS,0.988
11,STTD,≤ 0.2
12,SCLD,≤ 0.2
13,QLFN,≤ 0.2
14,TPAQ,≤ 0.2
15,HDTM,≤ 0.2
16,MAYH,≤ 0.2
17,ERTF,≤ 0.2
18,DDNR,≤ 0.2
19,CPST,≤ 0.2
20,YKDA,≤ 0.2
21,PKEG,≤ 0.2
22,TAPK,≤ 0.2
23,HRPL,≤ 0.2
24,YEPV,≤ 0.2

row,Variant,one-hybrid fitness for binding parS DNA
1,PSSA,≤ 0.2
2,EGYG,≤ 0.2
3,HSDS,≤ 0.2
4,ELWA,≤ 0.2
5,YLEC,≤ 0.2
6,LGWT,≤ 0.2
7,PFTF,≤ 0.2
8,PRMM,≤ 0.2
9,QPSR,≤ 0.2
10,ILCI,≤ 0.2
11,HLDL,≤ 0.2
12,FQAE,≤ 0.2
13,MNTC,≤ 0.2
14,NWQR,≤ 0.2
15,GTFG,≤ 0.2
16,VQPF,≤ 0.2
17,DRLV,≤ 0.2
18,SLTS,≤ 0.2
19,HYVK,≤ 0.2
20,SGIY,≤ 0.2
21,CFSC,≤ 0.2
22,RYDI,≤ 0.2
23,RCIR,≤ 0.2
24,TNAC,≤ 0.2

row,Variant,one-hybrid fitness for binding parS DNA
1,PYRV,≤ 0.2
2,FMPC,≤ 0.2
3,HQWS,≤ 0.2
4,PVLY,≤ 0.2
5,VRLY,≤ 0.2
6,LHTT,≤ 0.2
7,QCHI,≤ 0.2
8,SSHE,≤ 0.2
9,PYTC,≤ 0.2
10,PDFT,≤ 0.2
11,KCQG,≤ 0.2
12,GPMK,≤ 0.2
13,EDNG,≤ 0.2
14,EPQE,≤ 0.2
15,SMQL,≤ 0.2
16,HYPL,≤ 0.2
17,AFKK,≤ 0.2
18,YWTG,≤ 0.2
19,IAQR,≤ 0.2
20,SHEN,≤ 0.2
21,MRLD,≤ 0.2
22,ITNM,≤ 0.2
23,SDCL,≤ 0.2
24,HMYG,≤ 0.2

row,Variant,one-hybrid fitness for binding parS DNA
1,PMSQ,≤ 0.2
2,QAHF,≤ 0.2
3,LTVY,≤ 0.2
4,PSQT,≤ 0.2
5,AQAS,≤ 0.2
6,APCS,≤ 0.2
7,GAPI,≤ 0.2
8,IPDL,≤ 0.2
9,RCWW,0.336
10,LTSP,≤ 0.2
11,KPTC,≤ 0.2
12,HSGR,≤ 0.2
13,TPNM,≤ 0.2
14,LPFP,≤ 0.2
15,HGHS,≤ 0.2
16,RDEA,≤ 0.2
17,RVDW,≤ 0.2
18,SARE,≤ 0.2
19,LQEY,≤ 0.2
20,HFQT,≤ 0.2
21,KYHS,≤ 0.2
22,VANF,≤ 0.2
23,RHPI,≤ 0.2
24,SLKS,≤ 0.2

row,Variant,one-hybrid fitness for binding parS DNA
1,DAST,≤ 0.2
2,IRRF,≤ 0.2
3,HPMF,≤ 0.2
4,FKPF,≤ 0.2
5,RVNM,0.324
6,EVTP,≤ 0.2
7,GGRT,≤ 0.2
8,TLKP,≤ 0.2
9,SMYR,≤ 0.2
10,RKGQ,≤ 0.2
11,NILR,≤ 0.2
12,KYMS,≤ 0.2
13,PFPS,≤ 0.2
14,LLRL,≤ 0.2
15,IRSH,≤ 0.2
16,GQTI,≤ 0.2
17,VNSW,≤ 0.2
18,DCRF,≤ 0.2
19,ITPV,≤ 0.2
20,NTPV,≤ 0.2
21,NEHN,≤ 0.2
22,TQDC,≤ 0.2
23,FIRG,≤ 0.2
24,ILWT,≤ 0.2

row,Variant,one-hybrid fitness for binding parS DNA
1,ILKV,≤ 0.2
2,ISYM,≤ 0.2
3,KRFF,≤ 0.2
4,KMRG,≤ 0.2
5,SLWP,≤ 0.2
6,IFQT,≤ 0.2
7,AKNN,≤ 0.2
8,NIKT,≤ 0.2
9,LTRI,≤ 0.2
10,ACYV,≤ 0.2
11,RLFR,≤ 0.2
12,LSSC,≤ 0.2
13,FINK,≤ 0.2
14,WPAY,≤ 0.2
15,TIQT,≤ 0.2
16,CHHR,≤ 0.2
17,YPWF,≤ 0.2
18,PLMI,≤ 0.2
19,RCPH,≤ 0.2
20,TVTL,≤ 0.2
21,MTTM,≤ 0.2
22,QAWN,≤ 0.2
23,VGHD,≤ 0.2
24,VMAS,≤ 0.2

row,Variant,one-hybrid fitness for binding parS DNA
1,HIRP,≤ 0.2
2,GSVF,≤ 0.2
3,YRTP,≤ 0.2
4,LICC,≤ 0.2
5,NVTY,≤ 0.2
6,WPGT,≤ 0.2
7,QTRD,≤ 0.2
8,TVCT,≤ 0.2
9,IHHC,≤ 0.2
10,HPAD,≤ 0.2
11,QSKG,≤ 0.2
12,CPIE,≤ 0.2
13,ETVC,≤ 0.2
14,MGPS,≤ 0.2
15,WRGR,≤ 0.2
16,EVKV,≤ 0.2
17,GSKY,≤ 0.2
18,KAAL,≤ 0.2
19,EGVM,≤ 0.2
20,DCLR,≤ 0.2
21,RQGD,≤ 0.2
22,GTDT,≤ 0.2
23,QVYY,≤ 0.2
24,LNQE,≤ 0.2

row,Variant,one-hybrid fitness for binding parS DNA
1,TEAL,≤ 0.2
2,YTDF,≤ 0.2
3,LQFR,≤ 0.2
4,DYQT,≤ 0.2
5,ALPY,≤ 0.2
6,RLGC,0.97
7,HIHI,≤ 0.2
8,MHLV,≤ 0.2
9,DHDV,≤ 0.2
10,TDSD,≤ 0.2
11,NDGL,≤ 0.2
12,KWST,≤ 0.2
13,PNSE,≤ 0.2
14,RYGD,≤ 0.2
15,LSKP,≤ 0.2
16,PMWK,≤ 0.2
17,NCTY,≤ 0.2
18,LKSN,≤ 0.2
